Measurements taken from publication PMC12136788.
This is one part of the list.

B1: chr17:58089516:58089557:+|3pUTR|ENSG00000264364|msi1_unk|FALSE|overlapping (ssRNA)
RNA: GGGAGUUCUACAGUCCGACGAUCGAAGGCUGCUUUAUGUUUAUUUUUCAAGACUUUAAAAAUAUUUUUUGGUUGUAUUGCACUAGGAAAUCUCUCCCACCUCUCCCUUUUCUCUUUCUUUCCCUAUACAAAAUAAAAGGCCCACAACAGAGGAUUGAGCAUCA
B2: chr10:16593140:16593241:-|3pUTR|ENSG00000148484|unk|FALSE|unique (ssRNA)
RNA: GGGAGUUCUACAGUCCGACGAUCUUAUUUUUCUUUUCACUCUCUUUCUAAUGCUUCCCACCUUACCUUUUAGAUUCUUUUGCUAGGUGGGAGAUUGUUAUAAGGUCUUUAAACCAUUUCCAUUUGUUUCUUUAACAUUACCAACAACAGAGGAUUGAGCAUCA
B3: chr22:38483724:38483825:-|3pUTR|ENSG00000100201|msi1|FALSE|bound_elsewhere (ssRNA)
RNA: GGGAGUUCUACAGUCCGACGAUCACUUAUAAUUCAGGUUCUGCUGUUGGCUUCAGAACAUGAGCAGAAGAAUCGUUUUAUGCUAGUUAUUGCAUUCAUGGUUGAAACUCAACUUAGGGAAAGGGUUCCAAUGUAUUAAGCAAUCAACAGAGGAUUGAGCAUCA
B4: chr7:152649051:152649153:-|CDS|ENSG00000196584|unk|FALSE|unique (ssRNA)
RNA: GGGAGUUCUACAGUCCGACGAUCAGCUCUGAAGAAAUAAUCAAAUACUGCCUGGGAAGAUUUUUUUUGGUGUACUGCAGUAGUAGCACCCACUUACUUCUUACACUUUACUCACUAGAAAGUAUGUUUUGUAGUCACCCAUCUCAACAGAGGAUUGAGCAUCA
B5: chr9:88475159:88475277:+|CDS|ENSG00000106723|unk|total|mutant (ssRNA)
RNA: GGGAGUUCUACAGUCCGACGAUCACAAGUGGAAUAUGCCAAAGAAGAUGGCUCGAAAAGGACUGGCAUGGUCAUUCAUCAAGCCGAAGCCAAGCCCUCCGUCUAUUUCAUCAAGUUUGAUGAUGAUUUCCAUAUUUAUGUCUACAACAGAGGAUUGAGCAUCA
B6: chr7:77779054:77779164:+|CDS|ENSG00000187257|unk|total|mutant (ssRNA)
RNA: GGGAGUUCUACAGUCCGACGAUCUAAAUUUGAAAACCGCAACAAAGAUUUAAAGGAAGAAUUGUGCCCUGGAAAUCUAAGUCCCGUUGAUACAAGGCAACACAGUUCAGCACAUUCAAAUCAAGAUAAAAAAGACGAUGACAUCAACAGAGGAUUGAGCAUCA
B7: chr9:130136078:130136182:+|3pUTR|ENSG00000148358|msi1_unk|total|mutant (ssRNA)
RNA: GGGAGUUCUACAGUCCGACGAUCAGUCCAAGCAAAUCAUCCCCAUUAAAAAGCUUUUCCUGCCGGCCCGCCGGAUUUCUAAACCGAUGAAUUCAACAGACUUGGUCCCCACCGUCCAAGAGUAUGUAUGUGAAGAAAGUGAGCCAACAGAGGAUUGAGCAUCA
B8: chr1:183143318:183143419:+|3pUTR|ENSG00000135862|msi1|FALSE|unique (ssRNA)
RNA: GGGAGUUCUACAGUCCGACGAUCACAUCCUGUGCCAAAGGUAUUGGUCAUUUAGAAUGUCGGUAGCCAUCCAUCAGUGCUUUUAGUUAUUAUGAGUGUAGGACACUGAGCCAUCCGUGGGUCAGGAUGCAAUUAUUUAUAAAACAACAGAGGAUUGAGCAUCA
B9: chr4:56994692:56994796:+|CDS|ENSG00000047315|unk|total|mutant (ssRNA)
RNA: GGGAGUUCUACAGUCCGACGAUCAAAAACAGUCAUUAAAGAAGGUGAAGAACAACUUCAGACUCAGCAUCAGAAAACUUUUACCGGAAAAAUUCCAAUUAUGUUGCGGUCAACUUACUGCCUUUUGAAUGGCUUGACAGAUCGCAACAGAGGAUUGAGCAUCA
B10: chr10:30313878:30313980:-|CDS|ENSG00000107951|unk|total|mutant (ssRNA)
RNA: GGGAGUUCUACAGUCCGACGAUCUGUUUUUAUAUUUAAGCCCUUCAUGUACUUACUCAUUUUUUCUUCUGUGUAAUAAUCUACCGGGAAGGGAGCAAAACAAACCUGAUUCUUCUCCUCUGUACAUUCAGAAUCCAUUUGAAACAACAGAGGAUUGAGCAUCA
B11: chr19:1925360:1925461:+|3pUTR|ENSG00000227500|msi1|total|mutant (ssRNA)
RNA: GGGAGUUCUACAGUCCGACGAUCUCUCGAACUCCUGACCUCAAGUGAUCCACCCGCCUUGGCCUCCCAAAGUGCUGGGAUAACCGGUGUCAGCCACCGCGCCCAGCCUGGAGUGGCCUUUUAUGAGAGGGGACCCGUCAAAUCCAACAGAGGAUUGAGCAUCA
B12: ENSG00000198589:be:win_3751|CDS|ENSG00000198589|bound_else_gene|NA|bound_elsewhere_windowed (ssRNA)
RNA: GGGAGUUCUACAGUCCGACGAUCACAGAUACUGAGAGGCUGGAGUUGAAGGCCAGUCCCAACGUGGAAGCACCUCAACCUCAUCGACAUGUGCUUGAGAUAUCAAGGCAACAUGAGCAGCCAGGGCAAGGAAUAGCACCAGAUCAACAGAGGAUUGAGCAUCA
B13: ENSG00000136451:be:win_3801|3pUTR|ENSG00000136451|bound_else_gene|NA|bound_elsewhere_windowed (ssRNA)
RNA: GGGAGUUCUACAGUCCGACGAUCACCCCUAAGCUAGAAUGUGGUUGUCAGAACCCUGAAAGUAUUAGUUCUAAAAAAAAAAAGAUAUAUACUAGAAGUAAUUGUUUUAUCAAUUCAUUGUAUAAUAAACAGGAGUGAGACUUCCAACAGAGGAUUGAGCAUCA
B14: chr2:216672738:216672882:-|3pUTR|ENSG00000115461|msi1|total|mutant (ssRNA)
RNA: GGGAGUUCUACAGUCCGACGAUCUUCUCUCCGGCUUUUGUUUCUAUUUCAAACAUACUUUCUUGGUUUUCUAAUGGAGUAUACCGUUCCGUCAUUUCACAGACUCUGGCCUCCUCUCCUGAAAUCCUUUUGGAUGGGGAAAGGCAACAGAGGAUUGAGCAUCA

Target: MSI1 full-length (mouse, UniProt Q61474 1-362)
Sequence of UniProt Q61474 (Q61474 whole entry): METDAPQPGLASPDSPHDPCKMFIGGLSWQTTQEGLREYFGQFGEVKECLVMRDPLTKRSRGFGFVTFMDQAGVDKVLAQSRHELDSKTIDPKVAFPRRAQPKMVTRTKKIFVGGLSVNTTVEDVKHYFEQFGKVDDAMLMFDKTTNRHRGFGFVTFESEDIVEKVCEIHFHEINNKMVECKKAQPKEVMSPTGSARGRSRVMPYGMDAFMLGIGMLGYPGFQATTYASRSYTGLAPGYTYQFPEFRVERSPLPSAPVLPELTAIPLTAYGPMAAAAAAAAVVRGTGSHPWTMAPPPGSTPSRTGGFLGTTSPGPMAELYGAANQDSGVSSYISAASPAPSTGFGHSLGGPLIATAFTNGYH
Experiment: nsRBNS (natural sequence RNA bind-n-seq); RBNS binding buffer (assumed for nsRBNS): 25 mM Tris pH 7.5, 150 mM KCl, 3 mM MgCl2, 0.01% Triton X-100, 500 ug/ml BSA, 20 U/ml SUPERase-In, 4 C; UNK is unkempt and MSI1 is Musashi-1; names of the RNAs are library labels; protein concentration not given here; high values mean tight binding

| Binder | binding signal |
| --- | --- |
| B1 | 1.58 enrichment R |
| B2 | 10.5 enrichment R |
| B3 | 0.742 enrichment R |
| B4 | 1.1 enrichment R |
| B5 | 0.297 enrichment R |
| B6 | 0.179 enrichment R |
| B7 | 0.675 enrichment R |
| B8 | 34.2 enrichment R |
| B9 | 0.235 enrichment R |
| B10 | 0.482 enrichment R |
| B11 | 0.318 enrichment R |
| B12 | 0.4 enrichment R |
| B13 | 16.4 enrichment R |
| B14 | 0.416 enrichment R |
